{"source": "the supplement of paper PMC8728848", "test_in_all_cases": "glycan array binding signal (z-score within array); higher = stronger binding", "conditions_in_all_cases": "glycan notation: IUPAC condensed, linker removed", "key": {"Gal(a1-3)Gal(b1-4)GlcNAc": {"molecular_target": "Gal(a1-3)Gal(b1-4)GlcNAc", "procedure,_shortened": "(§1)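 From the Consortium for Functional Glycomics database, 3228 arrays were curated, keeping only those whose protein sequence was available. Binding is given as a within-array Z-score averaged across arrays sharing a protein sequence and across linkers. Negative Z-scores can be read as non-binding.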"}, "[1]": {"molecular_target": "Gal(a1-3)Gal(b1-4)GlcNAc(b1-2)Man", "procedure,_shortened": "as §1"}, "[2]": {"molecular_target": "Gal(a1-3)Gal(b1-4)GlcNAc(b1-2)Man(a1-3)[Gal(a1-3)Gal(b1-4)GlcNAc(b1-2)Man(a1-6)]Man(b1-4)GlcNAc(b1-4)GlcNAc", "procedure,_shortened": "as §1"}, "[3]": {"molecular_target": "Gal(a1-3)Gal(b1-4)GlcNAc(b1-3)GalNAc", "procedure,_shortened": "as §1"}, "[4]": {"molecular_target": "Gal(a1-3)Gal(b1-4)GlcNAc(b1-6)GalNAc", "procedure,_shortened": "as §1"}, "[5]": {"molecular_target": "Gal(a1-3)Gal(b1-4)[Fuc(a1-3)]GlcNAc", "procedure,_shortened": "as §1"}, "[6]": {"molecular_target": "Gal(a1-3)Gal(b1-4)[Fuc(a1-3)]GlcNAc(b1-2)Man(a1-3)[Gal(a1-3)Gal(b1-4)[Fuc(a1-3)]GlcNAc(b1-2)Man(a1-6)]Man(b1-4)GlcNAc(b1-4)GlcNAc", "procedure,_shortened": "as §1"}, "Gal(a1-3)GalNAc": {"molecular_target": "Gal(a1-3)GalNAc", "procedure,_shortened": "as §1"}, "[7]": {"molecular_target": "Gal(a1-3)[Gal(a1-4)]Gal(b1-4)GlcNAc", "procedure,_shortened": "as §1"}, "[8]": {"molecular_target": "Gal(a1-4)Gal(b1-3)GlcNAc(b1-2)Man(a1-3)[Gal(a1-4)Gal(b1-3)GlcNAc(b1-2)Man(a1-6)]Man(b1-4)GlcNAc(b1-4)GlcNAc", "procedure,_shortened": "as §1"}, "Gal(a1-4)Gal(b1-4)Glc": {"molecular_target": "Gal(a1-4)Gal(b1-4)Glc", "procedure,_shortened": "as §1"}, "Gal(a1-4)Gal(b1-4)GlcNAc": {"molecular_target": "Gal(a1-4)Gal(b1-4)GlcNAc", "procedure,_shortened": "as §1"}, "[9]": {"molecular_target": "Gal(a1-4)Gal(b1-4)GlcNAc(b1-2)Man(a1-3)[Gal(a1-4)Gal(b1-4)GlcNAc(b1-2)Man(a1-6)]Man(b1-4)GlcNAc(b1-4)GlcNAc", "procedure,_shortened": "as §1"}, "[10]": {"molecular_target": "Gal(a1-4)Gal(b1-4)GlcNAc(b1-3)Gal(b1-4)Glc", "procedure,_shortened": "as §1"}, "Gal(a1-4)GlcNAc": {"molecular_target": "Gal(a1-4)GlcNAc", "procedure,_shortened": "as §1"}, "Gal(a1-6)Glc": {"molecular_target": "Gal(a1-6)Glc", "procedure,_shortened": "as §1"}, "Gal(b1-2)Gal": {"molecular_target": "Gal(b1-2)Gal", "procedure,_shortened": "as §1"}, "Gal(b1-3)Gal": {"molecular_target": "Gal(b1-3)Gal", "procedure,_shortened": "as §1"}, "Gal(b1-3)Gal(b1-4)GlcNAc": {"molecular_target": "Gal(b1-3)Gal(b1-4)GlcNAc", "procedure,_shortened": "as §1"}, "Gal(b1-3)GalNAc": {"molecular_target": "Gal(b1-3)GalNAc", "procedure,_shortened": "as §1"}, "[11]": {"molecular_target": "Gal(b1-3)GalNAc(a1-3)[Fuc(a1-2)]Gal(b1-4)Glc", "procedure,_shortened": "as §1"}, "[12]": {"molecular_target": "Gal(b1-3)GalNAc(a1-3)[Fuc(a1-2)]Gal(b1-4)GlcNAc", "procedure,_shortened": "as §1"}, "Gal(b1-3)GalNAc(b1-3)Gal": {"molecular_target": "Gal(b1-3)GalNAc(b1-3)Gal", "procedure,_shortened": "as §1"}, "[13]": {"molecular_target": "Gal(b1-3)GalNAc(b1-3)Gal(a1-4)Gal(b1-4)Glc", "procedure,_shortened": "as §1"}, "[14]": {"molecular_target": "Gal(b1-3)GalNAc(b1-4)Gal(b1-4)Glc", "procedure,_shortened": "as §1"}, "[15]": {"molecular_target": "Gal(b1-3)GalNAc(b1-4)[Neu5Ac(a2-3)]Gal(b1-4)Glc", "procedure,_shortened": "as §1"}, "Gal(b1-3)GlcNAc": {"molecular_target": "Gal(b1-3)GlcNAc", "procedure,_shortened": "as §1"}, "[16]": {"molecular_target": "Gal(b1-3)GlcNAc(a1-3)Gal(b1-4)GlcNAc", "procedure,_shortened": "as §1"}, "[17]": {"molecular_target": "Gal(b1-3)GlcNAc(a1-6)Gal(b1-4)GlcNAc", "procedure,_shortened": "as §1"}, "Gal(b1-3)GlcNAc(b1-2)Man": {"molecular_target": "Gal(b1-3)GlcNAc(b1-2)Man", "procedure,_shortened": "as §1"}, "[18]": {"molecular_target": "Gal(b1-3)GlcNAc(b1-2)Man(a1-3)[Gal(b1-3)GlcNAc(b1-2)Man(a1-6)]Man(b1-4)GlcNAc(b1-4)GlcNAc", "procedure,_shortened": "as §1"}, "[19]": {"molecular_target": "Gal(b1-3)GlcNAc(b1-2)Man(a1-3)[Gal(b1-3)GlcNAc(b1-2)Man(a1-6)]Man(b1-4)GlcNAc(b1-4)[Fuc(a1-6)]GlcNAc", "procedure,_shortened": "as §1"}, "[20]": {"molecular_target": "Gal(b1-3)GlcNAc(b1-2)Man(a1-3)[GlcNAc(b1-4)][Gal(b1-3)GlcNAc(b1-2)Man(a1-6)]Man(b1-4)GlcNAc(b1-4)GlcNAc", "procedure,_shortened": "as §1"}, "[21]": {"molecular_target": "Gal(b1-3)GlcNAc(b1-2)[Gal(b1-3)GlcNAc(b1-6)]Man(a1-6)[Gal(b1-3)GlcNAc(b1-2)Man(a1-3)]Man(b1-4)GlcNAc(b1-4)GlcNAc", "procedure,_shortened": "as §1"}, "[22]": {"molecular_target": "Gal(b1-3)GlcNAc(b1-3)Gal(b1-3)GlcNAc", "procedure,_shortened": "as §1"}, "[23]": {"molecular_target": "Gal(b1-3)GlcNAc(b1-3)Gal(b1-4)Glc", "procedure,_shortened": "as §1"}, "[24]": {"molecular_target": "Gal(b1-3)GlcNAc(b1-3)Gal(b1-4)GlcNAc", "procedure,_shortened": "as §1"}, "[25]": {"molecular_target": "Gal(b1-3)GlcNAc(b1-3)Gal(b1-4)GlcNAc(b1-2)Man(a1-3)[Gal(b1-3)GlcNAc(b1-3)Gal(b1-4)GlcNAc(b1-2)Man(a1-6)]Man(b1-4)GlcNAc(b1-4)GlcNAc", "procedure,_shortened": "as §1"}, "[26]": {"molecular_target": "Gal(b1-3)GlcNAc(b1-3)Gal(b1-4)GlcNAc(b1-2)[Gal(b1-3)GlcNAc(b1-3)Gal(b1-4)GlcNAc(b1-6)]Man(a1-6)[Gal(b1-3)GlcNAc(b1-3)Gal(b1-4)GlcNAc(b1-2)Man(a1-3)]Man(b1-4)GlcNAc(b1-4)[Fuc(a1-6)]GlcNAc", "procedure,_shortened": "as §1"}, "[27]": {"molecular_target": "Gal(b1-3)GlcNAc(b1-3)Gal(b1-4)GlcNAc(b1-3)Gal(b1-4)GlcNAc(b1-2)[Gal(b1-3)GlcNAc(b1-3)Gal(b1-4)GlcNAc(b1-3)Gal(b1-4)GlcNAc(b1-6)]Man(a1-6)[Gal(b1-3)GlcNAc(b1-3)Gal(b1-4)GlcNAc(b1-3)Gal(b1-4)GlcNAc(b1-2)Man(a1-3)]Man(b1-4)GlcNAc(b1-4)[Fuc(a1-6)]GlcNAc", "procedure,_shortened": "as §1"}, "[28]": {"molecular_target": "Gal(b1-3)GlcNAc(b1-3)Gal(b1-4)GlcNAc(b1-6)[Gal(b1-3)GlcNAc(b1-3)]Gal(b1-4)Glc", "procedure,_shortened": "as §1"}, "[29]": {"molecular_target": "Gal(b1-3)GlcNAc(b1-3)Gal(b1-4)[Fuc(a1-3)]GlcNAc", "procedure,_shortened": "as §1"}, "[30]": {"molecular_target": "Gal(b1-3)GlcNAc(b1-3)Gal(b1-4)[Fuc(a1-3)]GlcNAc(b1-6)[Gal(b1-3)GlcNAc(b1-3)]Gal(b1-4)Glc", "procedure,_shortened": "as §1"}, "[31]": {"molecular_target": "Gal(b1-3)GlcNAc(b1-3)GalNAc", "procedure,_shortened": "as §1"}, "[32]": {"molecular_target": "Gal(b1-3)GlcNAc(b1-6)Gal(b1-4)GlcNAc", "procedure,_shortened": "as §1"}}, "note": "The other results are listed elsewhere or left out.", "data": [{"binder": "CrataBL (Crataeva tapia), C0HJA4 (protein) AILTGVPYYILPSTSRAGFSPDNLRKNTSQLSCPLDLITQLRFPRRIGVPVIFTPQNSSLKVVPLSHNLNIHTCSDLWFCPESKIWTVKSSLTHGGSVVTTGGTFRSLGSWFRIERHGDSYKLVHCPRGSTPCRDVGIETVGGGGRRYLAPRDRPLAVRFTRASG", "values": [{"measurement": "glycan array binding signal (z-score)", "setting": "Gal(a1-3)Gal(b1-4)GlcNAc", "result": -0.431}, {"measurement": "glycan array binding signal (z-score)", "setting": "[1]", "result": -0.525}, {"measurement": "glycan array binding signal (z-score)", "setting": "[2]", "result": -0.367}, {"measurement": "glycan array binding signal (z-score)", "setting": "[3]", "result": -0.198}, {"measurement": "glycan array binding signal (z-score)", "setting": "[4]", "result": -0.494}, {"measurement": "glycan array binding signal (z-score)", "setting": "[5]", "result": -0.475}, {"measurement": "glycan array binding signal (z-score)", "setting": "[6]", "result": -0.521}, {"measurement": "glycan array binding signal (z-score)", "setting": "Gal(a1-3)GalNAc", "result": -0.343}, {"measurement": "glycan array binding signal (z-score)", "setting": "[7]", "result": -0.022}, {"measurement": "glycan array binding signal (z-score)", "setting": "[8]", "result": -0.451}, {"measurement": "glycan array binding signal (z-score)", "setting": "Gal(a1-4)Gal(b1-4)Glc", "result": 0.248}, {"measurement": "glycan array binding signal (z-score)", "setting": "Gal(a1-4)Gal(b1-4)GlcNAc", "result": 0.037}, {"measurement": "glycan array binding signal (z-score)", "setting": "[9]", "result": -0.512}, {"measurement": "glycan array binding signal (z-score)", "setting": "[10]", "result": -0.302}, {"measurement": "glycan array binding signal (z-score)", "setting": "Gal(a1-4)GlcNAc", "result": -0.5}, {"measurement": "glycan array binding signal (z-score)", "setting": "Gal(a1-6)Glc", "result": -0.393}, {"measurement": "glycan array binding signal (z-score)", "setting": "Gal(b1-2)Gal", "result": -0.454}, {"measurement": "glycan array binding signal (z-score)", "setting": "Gal(b1-3)Gal", "result": -0.466}, {"measurement": "glycan array binding signal (z-score)", "setting": "Gal(b1-3)Gal(b1-4)GlcNAc", "result": -0.064}, {"measurement": "glycan array binding signal (z-score)", "setting": "Gal(b1-3)GalNAc", "result": -0.182}, {"measurement": "glycan array binding signal (z-score)", "setting": "[11]", "result": -0.124}, {"measurement": "glycan array binding signal (z-score)", "setting": "[12]", "result": -0.391}, {"measurement": "glycan array binding signal (z-score)", "setting": "Gal(b1-3)GalNAc(b1-3)Gal", "result": 0.043}, {"measurement": "glycan array binding signal (z-score)", "setting": "[13]", "result": -0.111}, {"measurement": "glycan array binding signal (z-score)", "setting": "[14]", "result": 0.008}, {"measurement": "glycan array binding signal (z-score)", "setting": "[15]", "result": 0.451}, {"measurement": "glycan array binding signal (z-score)", "setting": "Gal(b1-3)GlcNAc", "result": -0.448}, {"measurement": "glycan array binding signal (z-score)", "setting": "[16]", "result": -0.494}, {"measurement": "glycan array binding signal (z-score)", "setting": "[17]", "result": -0.374}, {"measurement": "glycan array binding signal (z-score)", "setting": "Gal(b1-3)GlcNAc(b1-2)Man", "result": -0.207}, {"measurement": "glycan array binding signal (z-score)", "setting": "[18]", "result": 0.003}, {"measurement": "glycan array binding signal (z-score)", "setting": "[19]", "result": -0.332}, {"measurement": "glycan array binding signal (z-score)", "setting": "[20]", "result": -0.059}, {"measurement": "glycan array binding signal (z-score)", "setting": "[21]", "result": -0.22}, {"measurement": "glycan array binding signal (z-score)", "setting": "[22]", "result": -0.285}, {"measurement": "glycan array binding signal (z-score)", "setting": "[23]", "result": -0.465}, {"measurement": "glycan array binding signal (z-score)", "setting": "[24]", "result": -0.522}, {"measurement": "glycan array binding signal (z-score)", "setting": "[25]", "result": -0.524}, {"measurement": "glycan array binding signal (z-score)", "setting": "[26]", "result": 1.29}, {"measurement": "glycan array binding signal (z-score)", "setting": "[27]", "result": 0.522}, {"measurement": "glycan array binding signal (z-score)", "setting": "[28]", "result": -0.334}, {"measurement": "glycan array binding signal (z-score)", "setting": "[29]", "result": -0.475}, {"measurement": "glycan array binding signal (z-score)", "setting": "[30]", "result": -0.529}, {"measurement": "glycan array binding signal (z-score)", "setting": "[31]", "result": -0.078}, {"measurement": "glycan array binding signal (z-score)", "setting": "[32]", "result": -0.257}]}]}
